# In the supplement of paper PMC8728848:
# The other results are listed elsewhere or left out.
# B1: Pwp4 (Candida glabrata) (protein)
# chain: MGSSHHHHHHSSGLVPRGSHMASVGNPITVSNVCSFPKNWHRTAGFRALTARLGIGIQSDSYKELLNYPGTFQLTTQQSSTTKPNFQISGLVGNIYGLTIVPSYLLVELTGYFVPPVSGEYTFSLEGSDDAAIIFIANPSTFKCGHVEDWPTAYDNDVTVTESIHATRTIYMIEGVAYPIRIAYYNGLSLGKLQASFTDPEGVKRVDWNGYIWRYDSCDTCSYV
# Experiments:
# Experiment in all cases: glycan array binding signal (z-score within array); higher = stronger binding
# Settings in all cases: glycan notation: IUPAC condensed, linker removed
# [1] = target: Fuc(a1-2)Gal6S(b1-3)GlcNAc6S
# Summary of the method: (§1)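 The Consortium for Functional Glycomics database supplied 3228 glycan arrays, of which those lacking an available protein sequence were dropped. The binding signal, a within-array Z-score, was averaged across arrays of the same protein sequence and across linkers. Negative scores can be read as non-binding.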
# [2] = target: Fuc(a1-2)Gal6S(b1-4)Glc
# Summary of the method: as §1
# [3] = target: Fuc(a1-2)Gal6S(b1-4)Glc6S
# Summary of the method: as §1
# [4] = target: Fuc(a1-2)[Gal(a1-3)]Gal
# Summary of the method: as §1
# [5] = target: Fuc(a1-2)[Gal(a1-3)]Gal(b1-3)GalNAc
# Summary of the method: as §1
# [6] = target: Fuc(a1-2)[Gal(a1-3)]Gal(b1-3)GalNAc(b1-3)Gal(a1-4)Gal(b1-4)Glc
# Summary of the method: as §1
# [7] = target: Fuc(a1-2)[Gal(a1-3)]Gal(b1-3)GlcNAc
# Summary of the method: as §1
# [8] = target: Fuc(a1-2)[Gal(a1-3)]Gal(b1-3)GlcNAc(b1-2)Man(a1-3)[Fuc(a1-2)[Gal(a1-3)]Gal(b1-3)GlcNAc(b1-2)Man(a1-6)]Man(b1-4)GlcNAc(b1-4)GlcNAc
# Summary of the method: as §1
# [9] = target: Fuc(a1-2)[Gal(a1-3)]Gal(b1-3)GlcNAc(b1-2)Man(a1-3)[Fuc(a1-2)[Gal(a1-3)]Gal(b1-3)GlcNAc(b1-2)Man(a1-6)]Man(b1-4)GlcNAc(b1-4)[Fuc(a1-6)]GlcNAc
# Summary of the method: as §1
# [10] = target: Fuc(a1-2)[Gal(a1-3)]Gal(b1-3)GlcNAc(b1-3)GalNAc
# Summary of the method: as §1
# [11] = target: Fuc(a1-2)[Gal(a1-3)]Gal(b1-3)GlcNAc(b1-6)GalNAc
# Summary of the method: as §1
# [12] = target: Fuc(a1-2)[Gal(a1-3)]Gal(b1-4)Glc
# Summary of the method: as §1
# [13] = target: Fuc(a1-2)[Gal(a1-3)]Gal(b1-4)GlcNAc
# Summary of the method: as §1
# [14] = target: Fuc(a1-2)[Gal(a1-3)]Gal(b1-4)GlcNAc(b1-2)Man
# Summary of the method: as §1
# [15] = target: Fuc(a1-2)[Gal(a1-3)]Gal(b1-4)GlcNAc(b1-2)Man(a1-3)[Fuc(a1-2)[Gal(a1-3)]Gal(b1-4)GlcNAc(b1-2)Man(a1-6)]Man(b1-4)GlcNAc(b1-4)GlcNAc
# Summary of the method: as §1
# [16] = target: Fuc(a1-2)[Gal(a1-3)]Gal(b1-4)GlcNAc(b1-2)Man(a1-3)[Fuc(a1-2)[Gal(a1-3)]Gal(b1-4)GlcNAc(b1-2)Man(a1-6)]Man(b1-4)GlcNAc(b1-4)[Fuc(a1-6)]GlcNAc
# Summary of the method: as §1
# [17] = target: Fuc(a1-2)[Gal(a1-3)]Gal(b1-4)GlcNAc(b1-3)GalNAc
# Summary of the method: as §1
# [18] = target: Fuc(a1-2)[Gal(a1-3)]Gal(b1-4)GlcNAc(b1-3)[Fuc(a1-2)[Gal(a1-3)]Gal(b1-4)GlcNAc(b1-6)]GalNAc
# Summary of the method: as §1
# [19] = target: Fuc(a1-2)[Gal(a1-3)]Gal(b1-4)GlcNAc(b1-6)GalNAc
# Summary of the method: as §1
# [20] = target: Fuc(a1-2)[Gal(a1-3)]Gal(b1-4)[Fuc(a1-3)]Glc
# Summary of the method: as §1
# [21] = target: Fuc(a1-2)[Gal(a1-3)]Gal(b1-4)[Fuc(a1-3)]GlcNAc
# Summary of the method: as §1
# [22] = target: Fuc(a1-2)[Gal(a1-3)]Gal(b1-4)[Fuc(a1-3)]GlcNAc(b1-3)GalNAc
# Summary of the method: as §1
# [23] = target: Fuc(a1-2)[Gal(a1-4)]Gal(b1-4)GlcNAc
# Summary of the method: as §1
# [24] = target: Fuc(a1-2)[GalNAc(a1-3)]Gal
# Summary of the method: as §1
# [25] = target: Fuc(a1-2)[GalNAc(a1-3)]Gal(b1-3)GalNAc(a1-3)[Fuc(a1-2)]Gal(b1-4)GlcNAc
# Summary of the method: as §1
# [26] = target: Fuc(a1-2)[GalNAc(a1-3)]Gal(b1-3)GalNAc(b1-3)Gal(a1-4)Gal(b1-4)Glc
# Summary of the method: as §1
# [27] = target: Fuc(a1-2)[GalNAc(a1-3)]Gal(b1-3)GlcNAc
# Summary of the method: as §1
# [28] = target: Fuc(a1-2)[GalNAc(a1-3)]Gal(b1-3)GlcNAc(b1-2)Man(a1-3)[Fuc(a1-2)[GalNAc(a1-3)]Gal(b1-3)GlcNAc(b1-2)Man(a1-6)]Man(b1-4)GlcNAc(b1-4)GlcNAc
# Summary of the method: as §1
# [29] = target: Fuc(a1-2)[GalNAc(a1-3)]Gal(b1-3)GlcNAc(b1-2)Man(a1-3)[Fuc(a1-2)[GalNAc(a1-3)]Gal(b1-3)GlcNAc(b1-2)Man(a1-6)]Man(b1-4)GlcNAc(b1-4)[Fuc(a1-6)]GlcNAc
# Summary of the method: as §1
# [30] = target: Fuc(a1-2)[GalNAc(a1-3)]Gal(b1-3)GlcNAc(b1-3)GalNAc
# Summary of the method: as §1
# [31] = target: Fuc(a1-2)[GalNAc(a1-3)]Gal(b1-3)GlcNAc(b1-6)GalNAc
# Summary of the method: as §1
# [32] = target: Fuc(a1-2)[GalNAc(a1-3)]Gal(b1-4)Glc
# Summary of the method: as §1
# [33] = target: Fuc(a1-2)[GalNAc(a1-3)]Gal(b1-4)GlcNAc
# Summary of the method: as §1
# [34] = target: Fuc(a1-2)[GalNAc(a1-3)]Gal(b1-4)GlcNAc(b1-2)Man
# Summary of the method: as §1
# [35] = target: Fuc(a1-2)[GalNAc(a1-3)]Gal(b1-4)GlcNAc(b1-2)Man(a1-3)[Fuc(a1-2)[GalNAc(a1-3)]Gal(b1-4)GlcNAc(b1-2)Man(a1-6)]Man(b1-4)GlcNAc(b1-4)GlcNAc
# Summary of the method: as §1
# [36] = target: Fuc(a1-2)[GalNAc(a1-3)]Gal(b1-4)GlcNAc(b1-2)Man(a1-3)[Fuc(a1-2)[GalNAc(a1-3)]Gal(b1-4)GlcNAc(b1-2)Man(a1-6)]Man(b1-4)GlcNAc(b1-4)[Fuc(a1-6)]GlcNAc
# Summary of the method: as §1
# [37] = target: Fuc(a1-2)[GalNAc(a1-3)]Gal(b1-4)GlcNAc(b1-3)Gal(b1-4)GlcNAc
# Summary of the method: as §1
# [38] = target: Fuc(a1-2)[GalNAc(a1-3)]Gal(b1-4)GlcNAc(b1-3)Gal(b1-4)GlcNAc(b1-3)Gal(b1-4)GlcNAc
# Summary of the method: as §1
# [39] = target: Fuc(a1-2)[GalNAc(a1-3)]Gal(b1-4)GlcNAc(b1-3)GalNAc
# Summary of the method: as §1
# [40] = target: Fuc(a1-2)[GalNAc(a1-3)]Gal(b1-4)GlcNAc(b1-3)[Fuc(a1-2)[GalNAc(a1-3)]Gal(b1-4)GlcNAc(b1-6)]GalNAc
# Summary of the method: as §1
# [41] = target: Fuc(a1-2)[GalNAc(a1-3)]Gal(b1-4)GlcNAc(b1-6)GalNAc
# Summary of the method: as §1
# [42] = target: Fuc(a1-2)[GalNAc(a1-3)]Gal(b1-4)[Fuc(a1-3)]GlcNAc
# Summary of the method: as §1
# [43] = target: Fuc(a1-2)[GalNAc(a1-3)]Gal(b1-4)[Fuc(a1-3)]GlcNAc(b1-3)GalNAc
# Summary of the method: as §1
# [44] = target: Fuc(a1-2)[GalNAc(a1-4)]Gal(b1-4)GlcNAc
# Summary of the method: as §1
# [45] = target: Fuc(a1-2)[GalNAc(b1-3)]Gal
# Summary of the method: as §1
binder,measurement,setting,value
B1,glycan array binding signal (z-score),[1],0.072
same,glycan array binding signal (z-score),[2],-0.528
same,glycan array binding signal (z-score),[3],0.675
same,glycan array binding signal (z-score),[4],-0.547
same,glycan array binding signal (z-score),[5],0.234
same,glycan array binding signal (z-score),[6],-0.516
same,glycan array binding signal (z-score),[7],-0.366
same,glycan array binding signal (z-score),[8],-0.259
same,glycan array binding signal (z-score),[9],-0.365
same,glycan array binding signal (z-score),[10],-0.307
same,glycan array binding signal (z-score),[11],1.1
same,glycan array binding signal (z-score),[12],-0.323
same,glycan array binding signal (z-score),[13],-0.522
same,glycan array binding signal (z-score),[14],-0.068
same,glycan array binding signal (z-score),[15],-0.161
same,glycan array binding signal (z-score),[16],-0.415
same,glycan array binding signal (z-score),[17],0.305
same,glycan array binding signal (z-score),[18],-0.423
same,glycan array binding signal (z-score),[19],-0.436
same,glycan array binding signal (z-score),[20],-0.509
same,glycan array binding signal (z-score),[21],0.205
same,glycan array binding signal (z-score),[22],1.93
same,glycan array binding signal (z-score),[23],-0.43
same,glycan array binding signal (z-score),[24],-0.541
same,glycan array binding signal (z-score),[25],-0.484
same,glycan array binding signal (z-score),[26],-0.333
same,glycan array binding signal (z-score),[27],-0.435
same,glycan array binding signal (z-score),[28],-0.315
same,glycan array binding signal (z-score),[29],-0.763
same,glycan array binding signal (z-score),[30],-0.221
same,glycan array binding signal (z-score),[31],-0.551
same,glycan array binding signal (z-score),[32],-0.552
same,glycan array binding signal (z-score),[33],-0.515
same,glycan array binding signal (z-score),[34],0.39
same,glycan array binding signal (z-score),[35],1.15
same,glycan array binding signal (z-score),[36],-0.261
same,glycan array binding signal (z-score),[37],0.146
same,glycan array binding signal (z-score),[38],-0.176
same,glycan array binding signal (z-score),[39],0.222
same,glycan array binding signal (z-score),[40],-0.536
same,glycan array binding signal (z-score),[41],-0.39
same,glycan array binding signal (z-score),[42],-0.455
same,glycan array binding signal (z-score),[43],-0.243
same,glycan array binding signal (z-score),[44],-0.271
same,glycan array binding signal (z-score),[45],-0.91
